The text below walks through data of the RNAGym collection of RNA variant scans (doi:10.1093/nar/gkz1192).

B1: CPEB3 Ribozyme (parent)
chain: UAACAGGGGGCCACAGCAGAAGCGUUCACGUCGCAGCCCCUGUCAGAUUCUGGUGAAUCUGCGAAUUCUGCUGUAUAUCUC

Read counts are not given, so values of variants with three or more changes are uncertain.

In this series the parent is B1. In words: self-cleavage, relative activity (ratio to wild type); higher = more cleavage; in vitro, sequencing. The gist of the method: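 For each CPEB3 ribozyme variant, relative activity is its cleaved/total read fraction divided by the unmutated ribozyme's. Barcoded error-prone PCR libraries were transcribed by T7 RNA polymerase (5 hours, 37°C) and held in DNase I for 15 min before an EDTA stop, with cleavage occurring throughout. Template-switching reverse transcription and Illumina sequencing were used to read the RNAs. A 5-read minimum applied, and results are the mean of three batches.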
On to U1C U25A U78C, for which the self-cleavage amounted to 0.2.
The same measure for U1C U25C G33A A47G U76G: 0.05; for U1A U51C A57G A64U: 0.13.
The same measure for U1C U51A U67C: 0.14; for U1C G10A A15G A57U U60C: 0.07.
For the variant U1C C38A U78A, the self-cleavage was 0.26.
The same measure for A2C A5U U69C U74A: 0.58; for U1C A20G A57G U69A U72C: 0.23; for U1A U60A A64G U80C: 0.42.
To U1C A35G A47G belongs 1; to U1C A21G U25C, 0.42.
To U1C A18G C34U U41C U43A A56G U67C belongs 0; to U1C C12U U26A U54C, 1.14; to U1C A5U C23U G61A, 0.12.
Take U1C U25C U69G: the self-cleavage is 0.21.
The same measure for U1G A47G G73A U78A U80A: 1.25; for U1C A13U U25C A57G U69C: 0.24.
To U1C A3U A18G U31C belongs 0.19; to U1C A21G A35G U49G, 0.26; to U1C C27U U41A G53C, 0.27.
The same measure for U1C G30C U43C C71G: 0.05.
On to U1A U41C U72C U80C, for which the self-cleavage amounted to 1.22.
To A2C A15G A20U U72C belongs 0.14; to A2C C12A U25C A56G U72C U80C, 0.36; to U1A G6U C11U U25C, 0.19.
U1C U26C A35U U51A G52A C68A U76A: the self-cleavage was 0.04.
To U1C A3G U25C belongs 0.67; to U1C C4G A28G A35G A65G, 0.95.
To U1C U72A U78C belongs 0.66; to U1A U43C U76C, 0.63; to U1A G24U U41C, 0.28.
The same measure for U1C C11G C14U C40U A56G A57G A64U: 0.03; for A2C A18U A20G A28U: 0.12; for U1C A5G A45G U80C: 0.93.
In the case of U1C U49C U78C, the self-cleavage was determined as 0.29.
Consider U1C A18U U26C U80C, for which the self-cleavage came to 0.39.
Turning to U1C G7A C29U C68A U69C U78C, the self-cleavage amounted to 0.04.
To U1C A18U U51C A64G U80C belongs 0.42; to U1C A5U C23U A28U U58C U69C U78C, 0.07; to U1C A5U U51A G61C, 0.52.
To U1G A13U G22A A35G A45G U54C belongs 0.27; to U1A U25C U48C U67C U78C, 0.08; to U1A G10C A28G U31C A35U A45G U69A, 0.14.
To U1C U51C A57G U69C U80C belongs 0.31; to U1C C12A U41C A56G C62G A65G, 0.15; to U1C C4G U43C, 0.72.
Regarding U1C U25G U43C A56U A64G U72A, the self-cleavage stood at 0.04.
The same measure for A2C C23U A28G U41A U60C: 0.2; for U1G A5U A13G C34U A35G U66A: 0.67.
To U1C A13G U41C A45G belongs 0.61.
The same measure for A2C A13C A15U U51C U54G U60C: 0.12; for U1C C23G U54A: 0.09.
As for U1C U26C U43A, the self-cleavage is 0.45.
The same measure for U1C G16A U25C C29U U49A: 1.02.
To U1C G19U U78A belongs 0.38; to U1C A2U A13G A20U, 0.14; to U1C A64U U66G U80A, 0.1.
To U1C A28G U41A belongs 0.36.
In the case of U1C A35G A45G U49C U76C U78A, the self-cleavage amounted to 1.13.
Consider U1C U31A U48C U51C A65U, for which the self-cleavage turned out to be 0.19.
With U1A G7A A15G U41A U48C A57G, the self-cleavage was 0.07.
To U1C C29U A57U belongs 0.39.
To U1C A5U U26C C38U G52U U67C belongs 0.2; to U1C C11G U26A A47G U72A, 0.09.
The same measure for U1G U25C U26C G30A: 0.42.
Regarding U1C A35U U67C, the self-cleavage stood at 0.16.
To U1C U43A U60A U74C belongs 0.47; to U1A U31C A65G U69G U78C, 0.14; to U1C A20U U54A, 0.35.
The same measure for A2C A3G C17A C40U: 1.06; for U1C U25A C39A U43C A56G A65G: 0.03.
The same measure for U1C C11U U72A U76C: 0.2.
As for U1C A20G U31C A45G U48C, the self-cleavage worked out at 0.41.
The same measure for U1C A13G A64U: 0.11.
The same measure for U1C A18C C37A U60C G73A: 0.03; for U1C G7C U69C: 0.41; for U1C A13G A21G C37U C62U U72C: 0.04.
Take U1C A15U U43C: the self-cleavage turned out to be 0.71.
To U1C U41A U43C U76A belongs 0.37.
For U1A G9A C11U A28U U54C G70U U78A, the self-cleavage was 0.04.
U1C G30U U31A A64U U78C: the self-cleavage came to 0.05.
As for U1A U67C A75U, the self-cleavage was determined as 0.32.
The same measure for U1C U41A A57G: 0.07; for U1C A3G C12A U49C U51C U54C: 0.13.
